Reference: US5589477A, “Pyrimidine derivatives and drugs” (Nippon Shinyaku Company, Limited, priority 1990, dated 1996)
Structures can show the parent of a compound that is named as a salt. The name of at least one read-out is uncertain.

Tested on: deficits of learning and memory induced by scopolamine
Assay: Improvement effects on deficits of learning and memory induced by scopolamine; step-through type passive avoidance task (rats)
Format: in vivo
Details: scopolamine 0.3 mg/kg i.p., cut-off 300 sec

| SMILES | Latency (step-through latency time in test trial) (Dose p.o. 0.3) | Latency (step-through latency time in test trial) (Dose p.o. 1) | Latency (step-through latency time in test trial) (Dose p.o. 3) | Latency (step-through latency time in test trial) (Dose p.o. 10) | Latency (step-through latency time in test trial) (Dose p.o. 30) | Latency (step-through latency time in test trial) (Dose p.o. 0.1) | Latency (step-through latency time in test trial) (Dose p.o. 100) |
| --- | --- | --- | --- | --- | --- | --- | --- |
| COc1ccc(-c2nc(C)cc(OCCN3CCN(C(c4ccccc4)c4ccccc4)CC3)n2)cc1 [Example 3, 4-[2-(4-diphenylmethylpiperazino)ethoxy]-2-(4-methoxyphenyl)-6-methylpyrimidine] | 191.50 ± 44.37 s | 239.90 ± 31.58 s | 244.20 ± 37.21 s | 276.70 ± 23.30 s | 272.10 ± 27.90 s | – | – |
| COc1ccc(-c2nc(C)cc(N3CCN(C(c4ccccc4)c4ccccc4)CC3)n2)cc1 [Example 4, 4-(4-diphenylmethylpiperazino)-2-(4-methoxyphenyl)-6-methylpyrimidine] | – | 143.90 ± 43.53 s | 204.50 ± 40.47 s | 245.70 ± 36.29 s | 279.20 ± 20.80 s | – | – |
| CCN(CC)CCOc1cc(C)nc(-c2ccccc2)n1 [Example 6, 4-[2-(N,N-diethylamino)ethoxy]-6-methyl-2-phenylpyrimidine dihydrochloride] | 200.40 ± 41.39 s | 222.80 ± 40.06 s | 223.50 ± 39.45 s | 188.10 ± 40.24 s | – | 179.80 ± 36.66 s | – |
| Cc1cc(OCCCN2CCCCC2)nc(-c2ccccc2)n1.Cl.Cl [Example 10, 4-Methyl-2-phenyl-6-(3-piperidinopropoxy)pyrimidine dihydrochloride] | – | 212.70 ± 44.45 s | 274.00 ± 26.00 s | 248.40 ± 34.40 s | 222.40 ± 39.90 s | – | 208.50 ± 38.37 s |
| Cc1cc(OCCN2CCN(C(c3ccccc3)c3ccccc3)CC2)nc(-c2ccccc2)n1 [Example 13, 4-[2-(4-diphenylmethylpiperazino)ethoxy]-6-methyl-2-phenylpyrimidine] | 131.10 ± 46.13 s | 186.10 ± 46.51 s | 286.50 ± 13.50 s | 245.70 ± 36.20 s | 242.60 ± 38.27 s | – | 169.20 ± 44.09 s |
| COc1ccc(-c2nc(C)cc(OCCN3CCN(c4ccccc4)CC3)n2)cc1 [Example 21, 2-(4-methoxyphenyl)-4-methyl-6-[2-(4-phenylpiperazino)ethoxy]pyrimidine] | – | 170.00 ± 44.05 s | 243.50 ± 37.67 s | 272.70 ± 27.30 s | 276.90 ± 23.10 s | – | – |
| COc1ccc(-c2nc(C)cc(OCCN3CCC(c4ccccc4)CC3)n2)cc1.Cl.Cl [Example 23, 2-(4-methoxyphenyl)-4-methyl-6-[2-(4-phenylpiperidino)ethoxy]pyrimidine dihydrochloride] | 156.40 ± 47.90 s | 243.10 ± 37.93 s | 270.90 ± 29.10 s | 274.00 ± 26.00 s | 272.00 ± 28.00 s | – | – |
| Cc1cc(N2CCN(C(c3ccccc3)c3ccccc3)CC2)nc(-c2ccccc2)n1 [Example 35, 4-(4-diphenylmethylpiperazino)-6-methyl-2-phenylpyrimidine] | 162.40 ± 40.34 s | 253.30 ± 31.14 s | 274.90 ± 25.10 s | 173.20 ± 42.51 s | – | 153.10 ± 41.22 s | – |
